{"source": "PubChem BioAssay AID1347043", "about": "(National Center for Advancing Translational Sciences (NCATS), 2019)", "note": "Hit rate of the full screen: of about 76,000 compounds, about 1,900 (2.5%) were called active. The shares of active, inactive and inconclusive entries below differ from those in the screen. Calls come from the whole dose curve; as a rule, active = well fitted inhibition curve with a large enough effect; inconclusive = small, poorly fitted or top-dose-only effect; inactive = flat fitted curve, though single readings scatter. Potencies of inconclusive entries are doubtful fits and often do not repeat.", "data": [{"target": "Luciferin 4-monooxygenase (Photinus pyralis) (UniProt P08659)", "sequence (P08659 whole entry, looked up)": "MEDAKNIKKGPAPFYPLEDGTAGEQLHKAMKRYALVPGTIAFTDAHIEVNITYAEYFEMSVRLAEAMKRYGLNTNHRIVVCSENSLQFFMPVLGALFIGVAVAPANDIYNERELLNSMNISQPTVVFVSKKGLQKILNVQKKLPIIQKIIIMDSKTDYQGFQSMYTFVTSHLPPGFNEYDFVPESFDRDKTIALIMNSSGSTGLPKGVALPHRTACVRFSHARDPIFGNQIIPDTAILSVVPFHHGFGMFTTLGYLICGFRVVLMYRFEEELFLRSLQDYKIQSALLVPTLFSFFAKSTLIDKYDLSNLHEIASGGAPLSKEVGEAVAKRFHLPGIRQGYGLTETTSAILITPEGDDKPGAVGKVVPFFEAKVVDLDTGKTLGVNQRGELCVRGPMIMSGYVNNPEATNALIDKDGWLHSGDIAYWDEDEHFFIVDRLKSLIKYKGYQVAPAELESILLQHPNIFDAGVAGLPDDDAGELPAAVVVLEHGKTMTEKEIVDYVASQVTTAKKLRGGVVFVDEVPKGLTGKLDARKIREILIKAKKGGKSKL", "assay": "Firefly luciferase inhibition profiling of diverse chemical library using quantitative high-throughput screening; note: nearly all actives have a fitted effect of over 65% in size; for Potency: tags give direction and shape of the fitted curve; for activity change, negative = inhibition: % is set by controls: 0 for no effect and ±100 for the full control effect", "conditions": "purified P. pyralis luciferase, luminescence, biochemical; activity change, negative = inhibition: at 115 µM (top of the series) unless noted", "from_the_text": "Firefly (Photinus pyralis) luciferase is one of the most commonly used transcriptional reporters for a number of reasons. It is considered one of the more dynamically responsive reporters - that is, responsive to changes in reporter transcription - as it requires no post-translational modifications and is enzymatically active directly after protein synthesis (Wood, 1998). Additionally, the half-life of the luciferase protein is short relative to other reporter-gene products (Wood, 1995). Whereas reporters with long half-lives potentially allow for increased signal due to accumulation of reporter-gene product, once accumulated in the cell, dynamic changes in reporter-gene expression may be difficult to detect(Fan and Wood, 2007; Almond et al., 2004). It has been shown that wild-type P. pyralis luciferase has a half-life of approximately four hours in mammalian cells (Thompson et al., 1991). Firefly luciferase reporter-gene assays are also generally considered one of the most sensitive assay types (Wood, 1995; Wood, 1998). Although light produced in a bioluminescence reaction is of lower intensity than that produced during fluorescence emission, this is offset by little to no background light inherent to luminescent assays. Thus the luciferase reporter can be expressed at much lower levels than fluorescent proteins while still providing robust signal. However, it was initially observed, in 1991, by Thompson et al., that compounds that resemble the substrates of firefly luciferase (FLuc) can act as competitive inhibitors of the enzyme, and that these compounds, upon interaction with luciferase in the cell, can actually stabilize the protein and increase its half-life. Accumulated intracellular FLuc protein can be measured as an increase in luminescence signal, upon addition of detection reagents (which contain high concentrations of FLuc substrates) commonly used in high-throughput screening. In cell-based reporter gene assays that use FLuc as the reporter gene to quantitate the potential influence of a given compound against the target biology, this apparent increase in luminescence can mistakenly be interpreted as identification of a compound that is active against the target of interest. FLuc inhibitory compounds that stabilize the FLuc protein will give an identical read-out, making it difficult to distinguish compounds that are active against the target from those active against FLuc. In summary, the results generated here constitutes a valuable resource for the scientific community and provides insight on identifying compounds with inhibitory activity for the commonly-used reporter, firefly luciferase. References: -Almond, B., Zdanovsky, A., Zdanovskaia, M., Ma, D., Stecha, P., Paguio, A., Garvin, D., and Wood, K. (2004). Introducing the Rapid Response Reporter Vectors. Promega Notes 87, 18-22. -Fan, F., and Wood, K.V. (2007). Bioluminescent assays for high-throughput screening. Assay Drug Dev Technol 5, 127-136. -Thompson, J.F., Hayes, L.S., and Lloyd, D.B. (1991). Modulation of firefly luciferase stability and impact on studies of gene regulation. Gene 103, 171-177. -Wood, K.V. (1998). The chemistry of bioluminescent reporter assays. Promega Notes 65, 14-20. -Wood, K.V. (1995). Marker proteins for gene expression. Curr Opin Biotechnol 6, 50-58.\nReagents: 50mM Tris acetate, pH 7.5; 10mM Mg acetate; 10uM D-luciferin (Sigma #L9504); 10uM ATP; 0.01% Tween-20; 0.05% BSA; 10nM P. pyralis luciferase (Sigma #L9506) Control compounds used were two known firefly luciferase inhibitors (compounds (2) and (5) in Auld et al., 2010), and DMSO. Assay Summary: Three microliters containing firefly luciferase substrates in buffer (final concentrations: 50mM Tris acetate, pH 7.5, 10mM Mg acetate, 0.01% Tween-20, 0.05% BSA, 10uM D-luciferin, and 10uM ATP) are dispensed into each well of a Greiner white, solid-bottom 1536-well format plate using a flying reagent dispenser (FRD). […]", "values": [{"molecule": "Cc1csc2c(NCCC3CN(c4cnn(C)c(=O)c4)CCO3)ncnc12", "note": "(stereo not given)", "Potency": "inconclusive: 44.7 µM [inhibitor, partial curve]"}, {"molecule": "Cc1cc(N2CCC(NC(=O)c3cccc(N(C)C)c3)C2=O)ccc1F", "note": "(stereo not given)", "Potency": "inconclusive: 56.2 µM [inhibitor, partial curve, poor fit]"}, {"molecule": "O=C(NCc1ccncc1)C1CCN(C(=O)c2ncn3c2COC(c2ccc(F)cc2)C3)CC1", "note": "(stereo not given)", "Potency": "active: 7.94 µM"}, {"molecule": "COC[C@@H]1CN(C(=O)c2cc3ccccc3[nH]2)C[C@H]1c1nc(C)no1", "Potency": "inconclusive: 1.12 µM [inhibitor, full curve, poor fit]"}, {"molecule": "N#Cc1cccc(C(=O)N2CCCCCCNC(=O)CC2)c1", "activity change, negative = inhibition": "inactive: -8.68%"}, {"molecule": "COCCN1C(=O)Cc2ccccc2C1C(=O)NCc1ccc(N2CCCCC2)cc1", "note": "(stereo not given)", "activity change, negative = inhibition": "inactive: 4.38%"}, {"molecule": "CCOCCCNC(=O)N1CC(Oc2ccc(-c3nc(-c4ccccc4)no3)cc2)C1", "Potency": "inconclusive: 2.82 µM [inhibitor, full curve]"}, {"molecule": "O=C(c1ccccn1)C1CCCN(C(=O)c2cnc(-c3cccnc3)nc2)C1", "note": "(stereo not given)", "activity change, negative = inhibition": "inactive: -2.3%"}, {"molecule": "COCCN[C@@H]1C[C@@H]2c3[nH]c4ccccc4c3C[C@@H](C(=O)OC)N2[C@H](c2cccc(OC)c2)C1", "activity change, negative = inhibition": "inactive: -24.2%"}, {"molecule": "O=C(NCCC1CCN(C(=O)Nc2cc(F)cc(F)c2)CC1)c1ccccc1", "Potency": "active: 28.2 µM"}, {"molecule": "CC(C)c1ccc(Nc2n[nH]c(C(O)c3ccccc3)n2)cc1", "note": "(stereo not given)", "Potency": "inconclusive: 79.4 µM [inhibitor, partial curve]"}, {"molecule": "Cc1ccccc1CN1CCc2ncc(C(=O)Nc3ccccc3)n2CC1", "Potency": "inconclusive: 112 µM [inhibitor, single point]"}, {"molecule": "O=C1NC2(CCN(Cc3ccc(F)cc3)C2)COc2ccccc21", "note": "(stereo not given)", "activity change, negative = inhibition": "inactive: 1.29% [at 172 µM]"}, {"molecule": "CC(C)CC(=O)N1CCC(Oc2nccnc2N(C)C)C1", "note": "(stereo not given)", "Potency": "active: 31.6 µM"}, {"molecule": "COCC1CCN(c2ccc(-c3nc(CCCc4ccccc4)no3)cn2)C1", "note": "(stereo not given)", "Potency": "inconclusive: 35.5 µM [inhibitor, full curve]"}, {"molecule": "O=C(O)c1cccc2c1CCN2C(=O)c1ccccc1", "Potency": "active: 2.51 µM"}, {"molecule": "CCOCC1(C)COc2ccc(C(=O)Nc3ccc(Cl)cc3)cc2N1", "note": "(stereo not given)", "Potency": "active: 11.2 µM"}, {"molecule": "Cc1nnc(-c2cc(N3CCN(c4ccccn4)CC3)ccn2)n1C", "Potency": "inconclusive: 70.8 µM [inhibitor, partial curve]"}, {"molecule": "N#Cc1ccc(C(=O)NCc2nnc3ccc(-c4ccccc4)nn23)cc1", "activity change, negative = inhibition": "inactive: -7.14%"}, {"molecule": "COc1ccc2nc(C[C@@H]3C[C@@H](C(C)C)[C@H](CNC(=O)C4CCCCC4)C=C3C)[nH]c2c1", "activity change, negative = inhibition": "inactive: 0.0532% [at 172 µM]"}, {"molecule": "COc1ccc(-c2cc(CC3(NCc4ccco4)COC3)no2)cc1", "Potency": "inconclusive: 50.1 µM [inhibitor, partial curve]"}, {"molecule": "COc1ccccc1-c1ccnc(-n2ncc(C(=O)NCCc3cccnc3)c2C2CC2)n1", "Potency": "inconclusive: 50.1 µM [inhibitor, partial curve, poor fit]"}, {"molecule": "Cc1ccc(OCc2occc2C(=O)N2CCC3(CC2)CNC(=O)C3)cc1", "Potency": "inconclusive: 44.7 µM [inhibitor, partial curve]"}, {"molecule": "CCC1=C(C(=O)OC)C(c2cccc(OC)c2)N2C(CC(=O)NCC3CCCO3)=CSC2=N1", "note": "(stereo not given)", "activity change, negative = inhibition": "inactive: -7.3%"}, {"molecule": "O=C(NCc1ccncc1)c1nc2c(o1)CCN(CCCc1ccccc1)CC2", "activity change, negative = inhibition": "inactive: 1.72% [at 172 µM]"}, {"molecule": "CC(C)CCNC(=O)C1CCN(C(=O)c2ncn3c2COC(c2ccc(F)cc2)C3)CC1", "note": "(stereo not given)", "Potency": "inconclusive: 35.5 µM [inhibitor, partial curve]"}, {"molecule": "CCCn1ccc2oc(C)c(C(=O)N3CCN(c4ccc(F)cc4)CC3)c2c1=O", "Potency": "inconclusive: 44.7 µM [inhibitor, partial curve]"}, {"molecule": "O=C1CC(c2ccccc2)N(C(=O)C2CC2)CCCN(C(=O)c2cc3ccccc3[nH]2)CCN1", "note": "(stereo not given)", "Potency": "inconclusive: 1.78 µM [inhibitor, full curve, poor fit]"}, {"molecule": "O=C(O)CSCC(=O)N1CCN2C(=O)c3cc(-c4ccc(Cl)cc4)ccc3NC(=O)[C@@H]2C1", "Potency": "inconclusive: 79.4 µM [inhibitor, single point]"}, {"molecule": "CCc1ccc(N2CC(c3noc(C4(c5ccc(OC)cc5)CC4)n3)CC2=O)cc1", "note": "(stereo not given)", "activity change, negative = inhibition": "inactive: -3.05%"}, {"molecule": "O=C(c1cc(-c2cccs2)[nH]n1)N1CCc2nc3cc[nH]n3c(=O)c2C1", "Potency": "inconclusive: 44.7 µM [inhibitor, partial curve, poor fit]"}, {"molecule": "O=C(CCc1cc2ccccc2[nH]c1=O)N1CCCCC1", "Potency": "inconclusive: 56.2 µM [inhibitor, partial curve]"}, {"molecule": "COCC1CN(C2CCC2)CC12CCN(C(=O)Cc1cccc(F)c1)CC2", "note": "(stereo not given)", "activity change, negative = inhibition": "inactive: 6.99%"}, {"molecule": "Cn1cc(-c2ccnc(N3CCOCC3)c2)c2nc(COc3ccc(Cl)cc3)cn2c1=O", "Potency": "inconclusive: 2.24 µM [inhibitor, full curve]"}, {"molecule": "CN1CCN(CCCNC(=O)C23CCCC=C2N(C2CCCC2)C(=O)CC3)CC1", "note": "(stereo not given)", "Potency": "inconclusive: 50.1 µM [inhibitor, partial curve]"}]}]}
